From the supplement of paper PMC10126150
Values marked as one replicate rest on one cluster of the flow cell; about a third of the high ones do not repeat.

System: ATP
Assay: switch fluorescence ratio, 500 uM ATP over buffer (Cy3 cluster intensity, sum of 5 cycles each) (fold (ratio)); higher = stronger signal-on switching upon ATP binding; sequences stand for … in TCGTCGGCAGCGTCAGATGTGTATAAGAGACAGTTTTTTTTTTTTTTTTTTTTTTTTT…TC
Settings: aptamer strand: ATP DNA aptamer (quencher-CACCTGGGGGAGTATTGCGGAGGAAGG + anchor), 100 nM annealed; ATP concentration: 500 uM; one replicate
Summary of the method: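 Cy3-labelled switching-strand clusters on a modified Illumina MiSeq flow-cell were annealed to 100 nM quencher-labelled ATP aptamer, imaged in selection buffer, then imaged after 15 min with 500 uM ATP at 22 °C. Five buffer/ATP cycles ran, with NaOH stripping and re-annealing between them. The fluorescence ratio is summed target-cycle over summed buffer-cycle Cy3 intensity per cluster, averaged per switch-domain sequence. Clusters outside 100-1000 RFU were excluded.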
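Note: ATP exposure 15 min at 22 °C before imaging.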

Sequence | switch fluorescence ratio
TACCAAGGCG | 0.991
AAATAGTGAG | 0.982
CTGCCGCTAG | 3.44
TTATTAGGG | 1.16
TGGGTGGAAC | 1.01
GATGTTGCAG | 0.912
ATCTGTGAAG | 0.988
GCTGGCCGCT | 1.03
GGGGCTTCGA | 0.963
GACCCTAATA | 1.05
TGCATCGATT | 1.02
TGCTTGGGCG | 0.989
GCACTCACAT | 1.27
TTTATCTACT | 1
ACCCTAGTTC | 1.05
GGCCAGAGAC | 0.994
TCGCAGACAC | 1.89
AAAGGCGTTT | 0.978
TGGAGCATGT | 1.16
CATAGGCGTG | 1.03
GGGTGCGATC | 1.04
GGTTTACGGG | 0.97
CAGGTCGCCG | 0.954
GTGCATATGG | 1.04
CTCAACAGCA | 1.04
GCCATTCGCA | 1.05

Sequence | switch fluorescence ratio
CGGTAAATAT | 1.02
CTGCAATCG | 1.34
TCCGGCCGG | 0.988
TTCTATAACT | 1.02
ATGGTTGCT | 0.94
GAGTATTCCG | 1.01
TAACCGTCCG | 1.32
TATATT | 0.966
CCAATGTTTA | 0.999
ACTTATTTTA | 0.989
TTGGGATTAT | 0.979
AGGAGATCGC | 0.967
AGGCTCCATG | 1.02
ATTCCTTTGC | 1.68
ACTCAAGATT | 1.04
AGGGGTTCC | 1.01
GTGAGAAAAA | 1.1
TTATAAAGTG | 1.05
ATCCGCGGTA | 1.13
GGATGGCTGC | 0.956
TGCTCCTTTC | 1.31
GTCTGCTCGC | 1.01
GAGACACAAG | 1.13
TCAAATGGCA | 1.05
AATGCTTGAC | 1.05
TCTATCAGCT | 0.99

Sequence | switch fluorescence ratio
CATGCGACC | 3.3
CGATTGTAA | 1.03
GATCACTCAT | 1.02
GATATGTTGC | 0.972
TGGGTTTCAA | 0.953
TATAACGTGT | 1.03
CACCCGGTGG | 1.12
AGTGCCTGCA | 1
CTGGCACTTC | 1.1
TTCGAGGCCC | 1
GTTCGTAGGT | 0.978
GTCACAGCCC | 1.04
ATTCGGTGAA | 0.985
GTAATGGAGT | 1.03
TGAGAAAGCG | 0.973
TTTATATCGA | 1.01
GTAGTAAACA | 1.05
GCGTCGACTG | 0.928
CGCACTTTGG | 1
GTTCTTTTCC | 1.03
GGCGAGGTTC | 0.991
ACGGACTGCG | 1.04
TTGGCGCTCA | 0.986
TATTATAATT | 0.954
CACGATACTA | 1.44
TCTGTCGAGC | 0.942

Sequence | switch fluorescence ratio
GGGCCCCGT | 1.01
TACGGTTTGC | 0.986
CACTTGATGA | 1.03
AGGGGATGGT | 0.944
AGGCTGGAGC | 1.03
CACGTAGCAC | 3.22
ATTAAAGCAT | 1.02
CTGCCGCTGC | 1.69
GATATACAAG | 1
CGCGCGTAGA | 1.01
ATTTTGATTC | 1.02
CGTACGGATT | 0.975
GATGTGGTCG | 0.984
CCGGCAATGG | 1.29
GTGGCAACTG | 1.21
TACTGTTTAT | 1.04
GGGTCGAATC | 1
TTAGGAAAAA | 0.982
TGACGTCAG | 0.977
ATGCCGCTTG | 0.994
GGGTGGGACT | 1.03
TCAAAGATGA | 1.04
GTACATTTGA | 1.01
GCCTATTAAC | 1
TTCCACGCC | 1.26
TGCGAGTTGT | 0.965

Sequence | switch fluorescence ratio
TGAAGTGCTG | 1.01
GGCGCCATGT | 0.992
TGCTGCTGAT | 1.01
ATCTCACCGA | 1.02
TGTCGCAGTT | 0.999
AGTATCGGAA | 0.989
AATTGCGCTT | 1.05
TAGCATAACA | 0.969
AATTGAGGGA | 0.94
CATATTGGCC | 0.979
CTCTAAAGAT | 1.11
CAAATTTTA | 0.997
CTAGGGTCTT | 0.96
ACGTTAGATG | 1.12
CGGAGATACC | 1.04
GGTATTGAAA | 0.987
CAAATATGG | 1.01
TCCTGTGG | 1.02
TGCATGTAAA | 0.981
GGTTTTTACC | 0.985
GCGATCTGG | 1.02
GACCTGGACC | 1.08
GGTGTCTGGC | 0.977
TGATTAATCT | 0.993
TCTCTCCCG | 1.12
CGTATATTGA | 1.01

Sequence | switch fluorescence ratio
TCGGTTCGAA | 0.999
GGGTCGGCTG | 0.994
ACAATTGGTT | 0.979
TCCATGGGAG | 1.02
CAGGACCTCA | 1.06
GGGCGTCGT | 0.994
TTAGAGTTGA | 1
TTATTACGAC | 1.16
ACAGTTGAAC | 0.999
CAGTCTGGTT | 1.11
CTATAGGGGA | 1.11
CGCCATCGGC | 0.983
ACGTGGAGAC | 1.11
GCCCCCTGGT | 1.07
TTGTAGGGTG | 1.01
ACTCAAAAAT | 1.02
CACTGAAATG | 1.01
ATCTCACGAC | 1.08
GATAGCGGCA | 1.03
AAACCCTTGA | 1.05
GTAGAAAAGT | 0.986
GGACGCGGGG | 0.97
AATCTTATTG | 0.962
TCGTGATATA | 0.997
AACAGACATT | 1.06
TTTCGAAAGT | 1.01

Sequence | switch fluorescence ratio
ACTACAGCCA | 1.12
GTGGCCATAC | 1.28
ACCAATATGA | 1.08
GAAATGCGGA | 1.04
TGGCGATGTC | 0.968
GGTTCATATA | 1.02
TCTTGGAAGT | 1.02
ACGGCGGAAC | 1.04
CAACTTTTAT | 1.03
ATGAATTGCG | 1.02
CAGGGGCGAG | 0.974
GCGTTATGGG | 0.988
AAGGTTATAC | 1.05
CCCCGGGAAG | 1.28
TTTTGACGG | 1.04
ATACACGTAC | 1.69
GTAAAAACAA | 0.997
GTCTGTGCGC | 0.982
ATCTTAACAG | 1.01
AGACAAGTCC | 1.05
GGGGTCC | 0.983
CGTTGGTGCA | 1.05
AACGAACTCT | 1.3
ACAGTAACGT | 1.12
TATCATAGAG | 1.01
GGTATCTAGG | 0.979

Sequence | switch fluorescence ratio
GATCTGGGAT | 0.985
CATCGGCCAA | 2.97
AAAGAATTGT | 0.981
GACCATATGT | 0.955
GGATTGTTGC | 1.01
AGAGTTCTCT | 0.998
CCTAACTTT | 0.954
GTGGCTGCGA | 1.03
TGAGATCGGA | 1.14
CTTCAGTAAA | 0.96
AGACCGTA | 1.14
TTTACTTGAG | 0.975
CCACGAGAAG | 1.06
GCTTTCAATT | 1.04
TGCGCCTTAT | 1.01
ACCCGGTCTT | 1.02
AGGGGATCAC | 0.989
GAACACCTTT | 1.05
TAACTTATCG | 1.02
